# Results: PubChem BioAssay AID651820 (National Center for Advancing Translational Sciences (NCATS), 2012)
# Among all 340,000 compounds or so, about 12,000 (3.5%) were called active. This list was built around the results that the source calls inconclusive (neither active nor inactive); the mix of calls is not that of the screen. Calls follow the shape of the dose curve; as a rule, active = well fitted inhibition curve with a large enough effect; inconclusive = small, poorly fitted or top-dose-only effect, or another doubt; inactive = no such curve, though single readings can be large or run the other way. No potency is given beside an inconclusive call; the fits are too rough.
# Assay: qHTS Assay for Inhibitors of Hepatitis C Virus (HCV)
# Conditions: Huh7.5.1 HCVcc-Cre (HCVcc is cell-culture hepatitis C virus) infection, luciferase reporter, 44 h; series mostly up to 41.8 µM
# Summary of the method: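 HCVcc-Cre virus at an moi near 0.5 was added right after compound to cells cultured 4 h from seeding (1,000 cells/well). Luciferase activity was determined 44 h later, 15 min after substrate addition at RT.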
# Potency is read from the fitted curve at half-maximal effect; tags tell the direction and shape of the fitted curve.
row,Structure (SMILES),Potency
1,COc1cc(-c2oc3cc(O)cc(O)c3c(=O)c2O[C@@H]2O[C@H](COC3O[C@@H](C)[C@H](O)[C@@H](O)[C@H]3O)[C@@H](O)[C@H](O)[C@H]2O)ccc1O (some centres not stated),"inconclusive [inhibitor, single point]"
2,O=C(Nc1ccccc1Cl)C(=O)c1cn(CC(=O)N2CCOCC2)c2ccccc12,inactive
3,Cc1ccc(-n2c(-c3ccc(Br)cc3)c[n+]3c2CCc2ccc4cccnc4c2-3)cc1,active: 2.51 µM
4,Cc1cccc(N(Cc2ccccc2)C(=O)c2ccc(F)c(S(=O)(=O)N3CCOCC3)c2)c1,"inconclusive [inhibitor, partial curve]"
5,Cc1ccc(OC(C)C(=O)N2CCCc3ccccc32)cc1 (configuration not stated),inactive
6,O=C(Nc1cccc(-c2csc(Nc3cccc(C(F)(F)F)c3)n2)c1)c1cc([N+](=O)[O-])cc(C(F)(F)F)c1,"inconclusive [inhibitor, partial curve]"
7,CC[C@@]1(C(=O)OC)N[C@H](CN(C)S(=O)(=O)c2ccc(-c3ccccc3)cc2)[C@@H]2C(=O)N(C)C(=O)[C@@H]21,"inconclusive [inhibitor, single point]"
8,CN(C)c1nc(N)nc(CSc2n[nH]c(-c3ccccc3)n2)n1,"inconclusive [inhibitor, single point]"
9,Cc1cccc(-n2c(SCc3ccc(C#N)cc3)nnc2-c2c[nH]c3ccccc23)c1,"inconclusive [inhibitor, single point]"
10,Cc1ccc(NC(=O)C2CCN(S(=O)(=O)c3ccc4c(c3)NC(=O)C(C)S4)CC2)cc1C (configuration not stated),"inconclusive [inhibitor, single point]"
11,COc1ccc(N/C=C(\C#N)c2ccc(OCCCF)cc2)cc1,"inconclusive [inhibitor, partial curve, poor fit]"
12,CCOCCCNC(=O)c1cc(=O)n(Cc2cccc(C)c2)c2ccccc12,inactive
13,CCOC(=O)c1c(/N=C/c2c(O)n(-c3ccccc3F)c(=S)[nH]c2=O)sc2c1CCCC2,"inconclusive [inhibitor, full curve, poor fit]"
14,Cc1ccc2oc(C(=O)N(C)CCC(O)c3ccccc3)c(C)c2c1 (configuration not stated),inactive
15,Cc1cccc(N2CCN(C(=O)c3ccc(S(=O)(=O)N(C)c4ccccc4)cc3)CC2)c1C,"inconclusive [inhibitor, partial curve]"
16,O=C(c1ccc(F)cc1)C1CCN(C(=O)NCc2ccccc2)CC1,"inconclusive [inhibitor, partial curve]"
17,CCCN(CC(=O)Nc1cc(Cl)ccc1Cl)C(=O)c1ccc(N2CCCC2=O)cc1,"inconclusive [inhibitor, partial curve]"
18,CCOc1cc(N2CCOCC2)c(OCC)cc1NC(=O)c1cc(C)cc(C)c1,active: 3.55 µM
19,COc1cc(S(=O)(=O)NC2CCCCC2C)ccc1F (configuration not stated),inactive
20,O=C(c1cnc(N2CCN(c3ncccn3)CC2)c2ccccc12)N1CCN(c2ncccn2)CC1,active: 11.2 µM
21,O=C(CC(Cc1ccccc1)c1ccco1)NC1CCCCC1 (configuration not stated),"inconclusive [inhibitor, partial curve]"
22,C[C@@H](CN1CCC[C@H]1CN1C(N)=NC[C@@H]1Cc1ccccc1)N1C[C@@H](Cc2ccccc2)N(CCCC2CCCC2)C1=N,"inconclusive [inhibitor, single point]"
23,COC(=O)CC1(CC(N)=O)SCCS1,inactive

row,Structure (SMILES),Potency
1,COc1ccc(C(=O)NC(=S)Nc2cc(C)ccn2)cc1[N+](=O)[O-],inactive
2,CC(C)(C)c1ccc(O)c(N=Cc2cc3c(cc2[N+](=O)[O-])OCO3)c1,"inconclusive [inhibitor, partial curve]"
3,Cc1c(C(=O)OC(C)C)sc(NC(=O)c2cnccn2)c1C(=O)OC(C)C,inactive
4,Cc1c(C2(O)CCCCC2)[nH]c2cc(C(F)(F)F)ccc12,"inconclusive [inhibitor, partial curve]"
5,Cc1ccc2[nH]c(=O)c(C3C(C#N)=C(N)Oc4c3ccc3cccnc43)cc2c1 (configuration not stated),active: 10 µM
6,Oc1ccc(/C=N/Nc2nc(-c3ccc(Cl)cc3)cc(C(F)(F)F)n2)cc1,active: 12.6 µM
7,CCCC(c1nnnn1C(C)(C)CC)N(Cc1ccco1)Cc1cc2ccc(OC)cc2[nH]c1=O (configuration not stated),"inconclusive [inhibitor, single point]"
8,CC1CC(C)CN(CCCNC(=O)c2cc3c(=O)[nH]c4ccccc4c3n2C)C1 (configuration not stated),"inconclusive [inhibitor, single point]"
9,COC(=O)C1=C(N)N(c2ccc(F)cc2)C2=C(C(=O)CCC2)C1c1ccc2c(c1)OCO2 (configuration not stated),inactive
10,O=C1CC(=C(c2ccccc2)c2ccccc2)C(=O)N1CCN1CCN(c2cccc(Cl)c2)CC1,"inconclusive [inhibitor, partial curve]"
11,Clc1cnc(Oc2ccc(Oc3ncc(Cl)cc3Cl)cc2)c(Cl)c1,inactive
12,O=[N+]([O-])c1cc(/C=N\Nc2ccccn2)ccc1Cl,"inconclusive [inhibitor, single point]"
13,Cc1cccc2sc(N(CCCN(C)C)C(=O)CCc3ccccc3)nc12,active: 10 µM
14,CCOC(=O)CC(NC(=O)Cn1nnc(-c2ccccc2Cl)n1)c1ccc(OC)cc1 (configuration not stated),"inconclusive [inhibitor, partial curve]"
15,Nc1cc2c(cc1Br)-c1ccc(F)cc1C2O (configuration not stated),inactive
16,Nc1o[nH]c(=O)c1C1CCCCC1,inactive
17,CC(C)c1nc2c(s1)CCc1onc(-c3cccc([N+](=O)[O-])c3)c1-2,"inconclusive [inhibitor, partial curve]"
18,O=C(CNc1cc(S(=O)(=O)N2CCCC2)ccc1OCC(F)(F)F)Nc1cccc(C(F)(F)F)c1,active: 11.2 µM
19,CCN(CC)C(=O)Cn1cc(C(=O)C(=O)NCC2COc3ccccc3O2)c2ccccc21 (configuration not stated),"inconclusive [inhibitor, single point]"
20,CCOc1cc(NC(=O)CCl)c(OCC)cc1NC(=O)CCl,"inconclusive [inhibitor, single point]"
21,CCOC(=O)C(=CNc1nc(-c2ccc3ccccc3c2)cs1)C(=O)OCC,"inconclusive [inhibitor, partial curve]"
22,O=C(c1ccc(-c2ccccc2Cl)o1)N1CCN(S(=O)(=O)c2cccs2)CC1,active: 14.1 µM
23,O=C1CCN(Cc2ccccc2)C(=O)N1,"inconclusive [inhibitor, single point]"

row,Structure (SMILES),Potency
1,COc1cccc(CN(C)Cc2cc(=O)oc3c(C)c(C)ccc23)c1,"inconclusive [inhibitor, single point]"
2,CN1C(=O)C(O)N=C(c2ccccc2)c2ccccc21 (configuration not stated),inactive
3,Cc1ccc(NC(=O)COc2ccc(-n3cnnn3)cc2)cc1C,"inconclusive [inhibitor, full curve]"
4,COc1ccc2cc(-c3ccsc3)ncc2c1,"inconclusive [inhibitor, single point]"
5,O=[N+]([O-])c1ccc(-c2csc(NN=C3CCCC3)n2)cc1,active: 8.91 µM
6,O=C(Nc1sc2c(c1C(=O)NCC1CCCO1)CCCC2)c1cccs1 (configuration not stated),"inconclusive [inhibitor, partial curve]"
7,CCCCCCSc1ccc(-c2nc3ccc(Cl)cn3c2NC2CCCCC2)cc1,inactive
8,COc1cc(/C=C/C(=O)OCC(=O)N2CC(=O)Nc3ccccc32)ccc1O,"inconclusive [inhibitor, single point]"
9,CCC(CC)C1C(C#N)=C(N)Oc2n[nH]c(C)c21 (configuration not stated),inactive
10,CC(C)n1ncc2c(C(=O)Nc3cccc(S(=O)(=O)N(C)C)c3)cc(C3CC3)nc21,"inconclusive [inhibitor, full curve]"
11,COc1cc(NC(=O)c2ccc3c(c2)OCCO3)ccc1NC(=O)c1ccccc1Cl,"inconclusive [inhibitor, full curve]"
12,Cc1ccc(NC(=O)CN(C)C(=O)c2cn(Cc3ccccc3)nc2-c2cccnc2)cc1,"inconclusive [inhibitor, single point]"
13,Cc1cccc(C(=O)Nc2cc(NC(=O)c3cccs3)ccc2C)c1,"inconclusive [inhibitor, single point]"
14,COc1cccc(-c2cn(C[C@H]3CC[C@@H]([C@@H]4CC[C@H](Cn5cc(-c6cccc(OC)c6)nn5)O4)O3)nn2)c1,inactive
15,CCOC(=O)C1(CCCc2ccccc2)CCN(C2CCC2)CC1,"inconclusive [inhibitor, partial curve]"
16,CC(=O)c1ccc(OCc2cc(C(=O)N3CCCCC3c3cccnc3)no2)cc1 (configuration not stated),"inconclusive [inhibitor, single point]"
17,Cc1cccc(OCC(=O)Nc2cccc(C(=O)NCC(C)C)c2)c1,"inconclusive [inhibitor, partial curve]"
18,COc1cccc(C(=O)Nc2ccc(N3CCN(C(=O)c4cccs4)CC3)cc2)c1,"inconclusive [inhibitor, full curve]"
19,CCOc1ccc(NC(=O)c2cccc(NC(C)=O)c2)cc1S(=O)(=O)N1CCCC1,"inconclusive [inhibitor, partial curve]"
20,CC(C(=O)Nc1cc([N+](=O)[O-])ccc1Cl)N1CCN(c2ccc(O)cc2)CC1 (configuration not stated),"inconclusive [inhibitor, single point]"
21,O=S1(=O)CCC(NC(=S)Nc2ccc3ccccc3c2)C1 (configuration not stated),inactive
